Some of the results follow.
The compounds below were run on T1, C. trachomatis L2/434/Bu expressing GFP (CTL2-GFP). Conditions: total inclusion area; 28.5 h, 10 µM; inhibitor.
T1 construct: L2/434/Bu GFP intracellular growth in HeLa cells
Design: species or system HeLa; C. trachomatis total inclusion area by high-content imaging, normalised to DMSO
Procedure, shortened: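 High-content imaging followed the bulk GFP/resorufin measurement: fixed, Hoechst-stained cells were scored for GFP inclusions and host nuclei per well. Total inclusion area and count served as growth proxies, nuclei number as the viability proxy. MIC calculation matched the bulk assay.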
`COc1ccc(N(CC(=O)O)S(=O)(=O)c2ccccc2[N+](=O)[O-])c(OC)c1` [CBK262729] was tested, and the “% of control remaining” value was 125.632. `Cc1cc(C)c(OCCOCCN2CCN(C)CC2)c(Cl)c1` [CBK263744G] was tested, and the “% of control remaining” value was 112.19. `Cc1cnc(CNC(=O)Cn2nnc(-c3ccc(CN4CCC(C)CC4)cc3)n2)cn1` [CBK137067C] was tested, and the “% of control remaining” value was 118.5. For `O=S(=O)(Nc1nnn[nH]1)c1ccc(F)cc1` [CBK050473], the “% of control remaining” value was 89.1288. In the case of `Cc1ccc(-c2csc(C3CN4CCCC4CO3)n2)s1` (stereo not shown) [CBK304113], the “% of control remaining” value is reported as 76.6002. With `Nc1nc(SCC(=O)NCc2ccco2)n[nH]1` [CBK266572] the “% of control remaining” value was 111.971. `O=C(OCCC1SC(NC2CC3C=CC2C3)=NC1=O)c1ccc(Cl)c([N+](=O)[O-])c1` (stereo not shown) [CBK200060T] was tested, and the “% of control remaining” value was 36.5242. With `COc1cccc(C(=O)NC[C@H]2CC[C@H](c3cc(C(N)=O)c4ccccc4n3)CC2)c1OC` [CBK285919] the “% of control remaining” value was 104.031. For `CS(=O)(=O)Nc1ccc2[nH]ccc2c1` [CBK062728], the “% of control remaining” value was 81.3114. In the case of `CCCNC(=O)COc1ccc(CC)cc1` [CBK058199], the “% of control remaining” value is reported as 40.823. `CC(=O)NC(c1ccccn1)C1CCN(Cc2cccc(F)c2)CC1` (stereo not shown) [CBK285461] was tested, and the “% of control remaining” value was 84.7776. `CC(=O)c1ccc(NC(=O)Nc2nnc(CCN3CCCC3)s2)cc1` [CBK174990] was tested, and the “% of control remaining” value was 34.7768. For `O=C(OCc1ccccc1)N1CCC2(CC1)CN(c1ccc([N+](=O)[O-])cn1)CCO2` [CBK161111T], the “% of control remaining” value was 74.6487. With `COc1ccc(/C=C2/SC(=O)N(CCNC3=NS(=O)(=O)c4ccccc43)C2=O)cc1` [CBK265545] the “% of control remaining” value was 82.6876. In the case of `O=C1NCCN1CCOc1nccnc1-c1ccsc1` [CBK106766], the “% of control remaining” value is reported as 97.179. For `C/C(=N\Nc1nnc2c(n1)[nH]c1ccccc12)c1ccccn1` [CBK262054], the “% of control remaining” value was 1.05. `O=C(O)CCCC(=O)NC(Cc1ccccc1)C(=O)Nc1ccc([N+](=O)[O-])cc1` (stereo not shown) [CBK299806] was tested, and the “% of control remaining” value was 111.82. With `O=C(O)c1cc(S(=O)(=O)Nc2ccccc2)ccc1O` [CBK109969] the “% of control remaining” value was 75.3983. For `COC1C(O)C(CO)OC1n1cc(C)c(=O)[nH]c1=O` (stereo not shown) [CBK201251], the “% of control remaining” value was 126.19. `CCCc1cc(C(=O)N[C@@H]2CCOC[C@H]2Oc2ccc(CO)cc2)cs1` [CBK306700] was tested, and the “% of control remaining” value was 53.1333. In the case of `CCN(CC)CCCNC(=O)N1CCCCC1CO` (stereo not shown) [CBK155982], the “% of control remaining” value is reported as 78.2325. For `COc1ccc(NC(=O)CSc2nc3c(N)ncnc3[nH]2)cc1` [CBK218441], the “% of control remaining” value was 107.446. For `CN(Cc1ccccc1)Cc1c(C2CCNCC2)[nH]c2ncccc12` [CBK285083], the “% of control remaining” value was 68.2766. In the case of `COc1ccc2[nH]cc(CCNC(=O)c3ccc(-c4cccc(N(C)C)c4)nc3N(C)C(C)=O)c2c1` [CBK076589], the “% of control remaining” value is reported as 112.842. For `Cc1cc(N2CCOC3(CCN(C(=O)c4ccc5ccccc5c4)CC3)C2)nc(N)n1` [CBK161125A], the “% of control remaining” value was 84.7738. `COc1ccc(CCN2CCC(Oc3cncc(OCC4COc5ccccc5O4)n3)C2)cc1OC` (stereo not shown) [CBK084389] was tested, and the “% of control remaining” value was 76.2224. In the case of `O=S(=O)(c1cccs1)N1CCc2ccccc2C1` [CBK044531], the “% of control remaining” value is reported as 90.1843. For `O=C1Cc2cc3ccccc3cc2C2(CCN(CCC(F)=C(F)F)CC2)N1` [CBK040033], the “% of control remaining” value was 78.085. For `COc1ccc(N(CC(=O)Nc2ccc3c(c2)oc2ccccc23)S(=O)(=O)c2ccccc2)cc1` [CBK264814], the “% of control remaining” value was 121.206. For `COc1nccnc1OC1CCN(Cc2ccccc2-c2ccccc2)CC1` [CBK084246], the “% of control remaining” value was 75.0307. With `COc1cc(C=c2sc(=CC(=O)C(C)(C)C)[nH]c2=O)ccc1OCC(=O)O` [CBK296948] the “% of control remaining” value was 107.157. For `NS(=O)(=O)c1ccc(NC(=O)CSc2ccc3ccccc3n2)cc1` [CBK265663], the “% of control remaining” value was 117.474. `Cc1nn(C)c(C)c1OCC(=O)Nc1cc(C(C)(C)C)sc1C#N` [CBK305383] was tested, and the “% of control remaining” value was 48.3649. `CCc1c(C)nc2c(-c3ccc(OC)c(OC)c3)cnn2c1O` [CBK287962] was tested, and the “% of control remaining” value was 101.228. In the case of `COc1ccc(C(=O)C=c2[nH]c(=O)c(=Cc3ccc(C(=O)O)cc3)s2)cc1` [CBK295614], the “% of control remaining” value is reported as 99.6618. For `Cc1ccc(NC(=O)Nc2ccc(F)cc2)cc1S(=O)(=O)N(C)C` [CBK269482], the “% of control remaining” value was 81.0947. `COc1cc(-c2nc(N)n[nH]2)cc(OC)c1OC` [CBK288077] was tested, and the “% of control remaining” value was 89.2861. With `Cc1cc(C)n(C2CCN(Cc3ccc4ccccc4n3)CC2)n1` [CBK281622] the “% of control remaining” value was 108.894. `CC(=O)C1=C(O)C(=O)N(CC(=O)O)C1c1ccc(Br)cc1` (stereo not shown) [CBK286712] was tested, and the “% of control remaining” value was 92.7979. In the case of `O=C(Nc1ncccc1O)c1cnc2c(cnn2C2CCCC2)c1` [CBK305246], the “% of control remaining” value is reported as 24.1213. `FC(F)(F)c1ccnc(Sc2ccncc2)c1` [CBK093793] was tested, and the “% of control remaining” value was 100.672. For `Cc1cccnc1C(NC(=O)C1CCN(Cc2cccn2C)CC1)c1ccc(Cl)cc1` (stereo not shown) [CBK148174], the “% of control remaining” value was 90.5276. In the case of `Cc1ccc(NS(=O)(=O)c2ccc(OCC(=O)N3CCN(C)CC3)c(C)c2)cc1` [CBK267834], the “% of control remaining” value is reported as 78.1012. In the case of `COC1C(O)C(CO)OC1n1cnc2c(=O)[nH]c(N)nc21` (stereo not shown) [CBK201324], the “% of control remaining” value is reported as 107.363. With `COc1cccc(NS(=O)(=O)c2cc(CC(=O)O)ccc2OC)c1` [CBK298333] the “% of control remaining” value was 71.8262. In the case of `Cc1nnc(SCC(=O)Nc2nonc2C)s1` [CBK269227], the “% of control remaining” value is reported as 101.133. `Cc1noc(C)c1NC(=O)CN1CCOCC1` [CBK200381] was tested, and the “% of control remaining” value was 50.5755. In the case of `COc1cccc(C2(O)CCC3CN(C(C)=O)CC32)c1` (stereo not shown) [CBK283222], the “% of control remaining” value is reported as 82.1992. `c1coc(CNc2cncc(-c3cccs3)n2)c1` [CBK065630] was tested, and the “% of control remaining” value was 137.329. For `O=S(=O)(c1ccc(F)cc1F)n1ccc2c(N3CCNCC3)nccc21` [CBK059061C], the “% of control remaining” value was 75.5127. With `O=C(C1CCC1)N1C2CCC1CC(O)(c1ccc(F)cc1)C2` (stereo not shown) [CBK283547] the “% of control remaining” value was 99.7388. `O=C(NCc1ccccc1)c1ccc2[nH]nnc2c1` [CBK200368] was tested, and the “% of control remaining” value was 91.2286. With `O=C(COc1ccccc1)N1CCCC1c1cccc(Cc2ccc(F)cc2)n1` (stereo not shown) [CBK286230] the “% of control remaining” value was 95.3796. `CC1(C)C2CCC1(CS(=O)(=O)N1CCC(C(N)=O)CC1)C(=O)C2` (stereo not shown) [CBK269499] was tested, and the “% of control remaining” value was 84.0466. In the case of `CC(C)OC(=O)N1CCC(CNc2ncc(-c3ccc(S(C)(=O)=O)cc3)cn2)CC1` [CBK165367], the “% of control remaining” value is reported as 56.9804. For `O=C(COc1ccccc1O)NCCN1CCOCC1` [CBK262243C], the “% of control remaining” value was 110.18. In the case of `CSc1nsc(NC(=O)Nc2ccccc2)n1` [CBK027286], the “% of control remaining” value is reported as 45.8472. For `O=C(NC1CCCN(c2cc(-c3ccncc3)n[nH]2)C1)c1ccsc1` (stereo not shown) [CBK288619], the “% of control remaining” value was 77.8897. In the case of `c1ccc2cc(-c3cncc(NCc4ccncc4)n3)ccc2c1` [CBK037899], the “% of control remaining” value is reported as 69.3754. `CCNC(=O)N1CCN(CCOC(c2ccc(F)cc2)c2ccc(F)cc2)CC1` [CBK024943C] was tested, and the “% of control remaining” value was 94.0633. `CC1CCN(Cc2nc3c(c(=O)n(C)c(=O)n3C)n2CCN2CCOCC2)CC1` [CBK269291] was tested, and the “% of control remaining” value was 114.989. `Fc1ccccc1CN(CCCn1ccnc1)Cc1cccnc1` [CBK283099] was tested, and the “% of control remaining” value was 116.589. `CN(c1ccccc1C(N)=O)S(=O)(=O)c1ccc(S(=O)(=O)C(F)F)cc1` [CBK298289] was tested, and the “% of control remaining” value was 95.631. `COc1ccc(Nc2nc(-c3ccc(F)cc3)cs2)c(OC)c1` [CBK131705] was tested, and the “% of control remaining” value was 94.8227. In the case of `CN(C)CCN1CCN(c2nc(-c3ccc4c(c3)OCO4)cnc2N)CC1` [CBK063495], the “% of control remaining” value is reported as 140.842. For `CC(NC(=O)C1CC(=O)N(Cc2ccccn2)C1)c1ccc(F)cc1` (stereo not shown) [CBK304552], the “% of control remaining” value was 107.377. `COc1cccc(C(=O)Nc2nc(-c3ccccc3)cs2)c1OC` [CBK287697] was tested, and the “% of control remaining” value was 112.435. `O=C(O)CC1C(=O)NCCN1Cc1cccc(Oc2ccccc2)c1` (stereo not shown) [CBK270023] was tested, and the “% of control remaining” value was 111.912. `OC1(c2cccnc2F)CCN(Cc2c(F)cccc2Cl)CC1` [CBK283148] was tested, and the “% of control remaining” value was 100.233. `Cc1nc(C(=O)NC2CCN(C)CC2)ccc1C(=O)O` [CBK304262] was tested, and the “% of control remaining” value was 56.1545. `CCCn1c(C)c(C)n2c3c(=O)n(CCC(=O)OC)c(=O)n(C)c3nc12` [CBK306048] was tested, and the “% of control remaining” value was 36.7228. With `Cn1cc2c(n1)CC1CCC2N1C(=O)c1ccc(F)c(F)c1` (stereo not shown) [CBK281691] the “% of control remaining” value was 108.727. For `COc1ncc(-c2nccnc2NCc2cccc([N+](=O)[O-])c2)c(OC)n1` [CBK036680], the “% of control remaining” value was 82.7255. In the case of `O=C(c1ccc2c(c1)N(Cc1ccccc1Cl)C(=O)CO2)c1cccs1` [CBK286411], the “% of control remaining” value is reported as 91.1903. In the case of `COC(=O)c1ccc(CO)nc1` [CBK261376C], the “% of control remaining” value is reported as 105.183. For `O=C1N[C@]2(CCc3ccccc31)CN(CC1CC=CCC1)C[C@H]2CO` (stereo partly shown) [CBK284794], the “% of control remaining” value was 125.073. For `O=C(COc1cccc2c1CCNC2=O)Nc1ccccc1` [CBK287730], the “% of control remaining” value was 99.4679. With `CN1CCN(c2cc(-c3ccncc3)nc3ccccc23)CC1` [CBK050976B] the “% of control remaining” value was 83.1029. In the case of `CC(=O)Nc1ccc(OCC(O)CNC2CCCC2)cc1` (stereo not shown) [CBK267857C], the “% of control remaining” value is reported as 134.346. `O=C1CNC(=O)N1CC(O)Cn1c2ccc(Cl)cc2c2cc(Cl)ccc21` (stereo not shown) [CBK265792] was tested, and the “% of control remaining” value was 84.9646. With `O=C(O)CC(NC(=O)OCc1ccccc1)c1ccccc1` (stereo not shown) [CBK265351] the “% of control remaining” value was 90.2948. For `COc1cccc(OC)c1OCCN1CCC(NC(=O)Nc2ccc(Cl)cn2)CC1` [CBK051515], the “% of control remaining” value was 107.71.

— PMC12040169 (PLOS Biology, 2025)
